The values that follow come from the RNAGym collection of RNA variant scans (doi:10.1093/nar/gkz1192).

Read counts are not given, so values of variants with three or more changes are uncertain.

B1: CPEB3 Ribozyme (parent)
chain: UAACAGGGGGCCACAGCAGAAGCGUUCACGUCGCAGCCCCUGUCAGAUUCUGGUGAAUCUGCGAAUUCUGCUGUAUAUCUC

Variants of B1 are the subject of this data set. The experiment in a line: self-cleavage, relative activity (ratio to wild type); higher = more cleavage; in vitro, sequencing. Put shortly:
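After error-prone PCR and barcoding, CPEB3 ribozyme mutant libraries were transcribed with T7 RNA polymerase at 37°C for 5 hours, then given 15 min with DNase I before an EDTA stop, and they cleaved during both steps. Reverse transcription with template switching preceded Illumina sequencing. Relative activity divides a variant's cleaved/total read fraction by the unmutated ribozyme's. At least 5 reads were required per variant, and three batches were averaged.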
As to UAGCAGGCGGCCACAGCAGAAGCAUUCACGUCGCAGCCCCUGUCAGAUUCUGGUGAAUCUGCGGAUUCUGCUGUAUAUCCC, the self-cleavage worked out at 0.11.
With UAGCAGGGUGCCACAGCGGAGGCGUUCACGUCGCGGCCCCUGUCAGAUUCUGGUGAAUCUGCGAAUUCUGCUGUAUAUCUC the figure was 0.15; with UAGCAGGGGACCACAGCGGAAGCGUUCACGUCGCGGCCCCUGUCAGAUUCUGGUGAAUCCGCGAAUUCUGCUGUAUUUCUC, 0.24.
Take UAGCAGGGAGCCACAGCAGAAGCGUUCACGUCGCAGCCCCUGUCAGGUUCUGGUGAACCUGCGAGUUCUGCUGUAUAUCUC: the self-cleavage turned out to be 0.12.
As to UAGCAGGGGACCACAGCAGAAGCGUUCACGUCGCUGCCCCUGUCAGAUUCUGGUUAAUCUGCGAAUUCUGCUGUAUAUCUC, the self-cleavage worked out at 0.22.
Take UAGCAGGAGUCCACAGCAGAAGCGUUCACGUCGCAGCCCCUGUCAGAUUCUGGUGAAUCUGCGAAUUCUGCUGUAUAUCUC: the self-cleavage is 0.1.
Take UAGCAGGGAGCCACAGCAGAAGCGUGCACGUCGCUGCCCCUGUCAGAUUCUGGUGAAUCUGCGAGUUCUGCUGUAUAUCUC: the self-cleavage was 0.51.
Regarding UAGCAGGGAGCCACAGCAGAAGCGUUCGCGACGCAGCCCCUGUCAGAUUCUGGCGAAUCUGCGAAUUCUGCUGUAUAUCCC, the self-cleavage turned out to be 0.1.
As to UAGCAGGGAGCCACAGCAGAAGCGUUCACGUCGCAGCCCCAGUCAGAUUCUGGUGAAUCUGCGAAUUCUGCAGUAUAUCUC, the self-cleavage stood at 0.08.
Take UAGCAGGAGGCCGCAGCAGAAGCGUUCACGACGCAGCCCUUGUCAGAUUCUGGUGAAUCUGCGAAUUCUGCUGUAUAUCUC: the self-cleavage is 0.13.
With UAGCAGGUGGCCACAGCAGAAGCGUUCACGUCGCAGCCCCUGUCAGGUUUUGGUGGAUCUGCGAAUUCUGCUGUAUAUCUC the figure was 0.47; with UAGCAGGGCGCCACAGCAGAAGCGUUCACGACGCAGCCCCUGUCAGAUUCUGGUGAAUCUGCGAAUUCUGCUGUAUAUCUC, 0.51; with UAGCAGGGAGCAACAGCAGUAACGUUCACGUCGCAGCCCCUGUCAGAUUCUGGUGAAUCUGCGAAUUCUGCUGUAUACCUC, 0.07.
As for UAGCAGCGGGCCACAGCAGAAGCCUUCACGUCGCAGCCCCUGCCAGAUUCUGGCGAAUCGGCGAAUCCUGCUGUAUAUCUC, the self-cleavage came to 0.14.
With UAGCAGGAGGCCACAGCAGAGGCGUUCACGUCGCGGCCCCUGUCAGAUUCUGGUGAAUCUGCGAAUUCUGCUGUAUAUCUC the figure was 0.11.
Regarding UAGCAGGGGACUACAGCAGAAGCGUCCACGUCGCAGCCCCAGUCAGAUUCUGGUGAAUCUGCGAAUGCUGCAGUAUAUCUC, the self-cleavage is 0.06.
UAGCAGGGAGCCACAGCAGAAGCGUUCACGUCGCAGCCCCUGUCGGAUACUGGUGGAUCAGCGAAUUCUGCUGUAUACCUC: the self-cleavage amounted to 0.06.
As to UAGCAGGGAGCCAUAGCAGAAGCGUCCACGUCGCGGCCCCUGUCAGAUUCUGGUGAAUCUGCGAAUUCUGCUGUACAUCUC, the self-cleavage amounted to 0.39.
As to UAGCAGGAGGCCACAGCAGAAGCGUUCACGUCGUAGCCCCUGUCAGAUUCUGGUGAACCUGCGAAUUCUGCUGUAUAUCUU, the self-cleavage is 0.07.
Consider UAGCAGGGGACCACAGCAGAAGCGUUCACGUCGCGGCCCCUGUCAGAUUCUGGUGAAUCUGCGAAUUCUGCCGUAUAUCUC, for which the self-cleavage stood at 1.07.
As to UAGCAGGGAGCCACAGCAGGAGCGUUCACGUCGCAGCCCCUGUCGGAUUCUGGUGAAUCUGCGAAUUCUGCUGUAUAUCUC, the self-cleavage is 0.42.
Regarding UAGCAGGGGACCACAGCUGAAGCGUCCACGUCGCAGCCCCAGUCAGAUUCCGGUGAAUCUGCGGAUUCUGCUGUAUAUCUC, the self-cleavage was found to be 0.05.
As to UAGCAGGUCGCCUCAGCAGAAGCGUUCACGUCGCAGCCCCUGUCAGAUUCUGGUGAGUCUGCGAAUUCUGCUGUAUAUCUC, the self-cleavage came out at 0.08.
UAGCAGGGAGCCACAGCAGAAGCGUUCACGUCGCAGCCCCUGUCAGAUUCUGGUGAAUCUGCGAAUUCUGCUGUAUGUCUC: the self-cleavage was 0.52.
As for UAGCAGGCGGCCACAGCAGAGGCGUCCACGUCGCAGCCCCUGUCAGAUUCUGGUGAAUCUGCGAAUUCUGCUGUAUAUGUC, the self-cleavage came out at 0.06.
For the variant UAGCAGGGGACCACAGCAGAAGCGUUCACGUCGCAGCCCCUGUCAGAUUCUGGUGUAUCAGCGAAUUCUGCUGUAUAUCUC, the self-cleavage is 0.18.
As to UAGCAGGAGGCCACAGCAGAAGCGUUCACGUCGCAGCCCCUGUCAGAUUCUGGUGAGUCUGUGAAUUCCGCUGUAUACCUC, the self-cleavage amounted to 0.27.
With UAGCAGGGCGCCACAGCAGAAGCGUUCACGUCGCAGCCCCUGUCAGAUCCUGGUGAAUCUGCGAAUUCUGCUGUAUAUCUC the figure was 0.46; with UAGCAGCGGGCCACAGCAGAAGCGUUCACGUCUCAGCCCCUGUCAGAUUCUGGUGAAUCUGCGAAUUCUGCUGUAUAUCUC, 0.06; with UAGCAGUGGGCCACAGCAGAAGCGUUCACGUCGCAGCCCCUGUCCGAUUCUGGUGAAUCUGCGGAUUCUGCUGUAUAUCUC, 0.09.
Regarding UAGCAGCGGGCCACAGCAGAAGCGUUCACGUCGCAGCCCCUGUCAGACUCAGGUGAAUCUGCGAACUCUGCUGUAUAUCUC, the self-cleavage worked out at 0.05.
With UAGCAGGGUGCCACUGCAGAAGCGUUCACGUCGCAGCCCCUGUCAGAUUCUGGUGAAUCAGCGAAUUCUGCUGUAUAUCUC the figure was 0.18; with UAGCAGCGGGCCACAGCAGUAGCGUCCACGUCGCAGCCCAUGUCAGAUUCAGGUGAAUCUGCGAAUUCUGCUGUAUAUCUC, 0.05; with UAGCAGGGAGCCACAGCAGAAGCGUUCACGUCGCAGCCCCUGUCAGAUUCUGGUGAAUCUGCGGAUUCUGCAGUAUAUCUC, 0.1.
